Reference: the supplement of paper PMC12067230
Single values of this set are uncertain.

assay: amyloid nucleation score relative to library mode (yeast Sup35 reporter selection) (log enrichment difference); higher = more amyloid nucleation; sequences are the first 22 residues of the Bri2 peptide extended by up to 12 random residues; details: random library (experiment): 1;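 active = nucleation score significantly above 0 at FDR 0.05; inactive = not significantly above 0 or absent from output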
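Note: [psi-pin-] Saccharomyces cerevisiae expressing SupN fusions, induced by 100 µM Cu2SO4, selected 7 d at 30 °C without adenine and uracil, scored by deep sequencing of output versus input.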

| Sequence | amyloid nucleation score |
| --- | --- |
| EASNCFAIRHFENKFAVETLICGVNWAAIGTGNA | inactive |
| EASNCFAIRHFENKFAVETLICVELYTCGESLVS | inactive |
| EASNCFAIRHFENKFAVETLICLSNDLVTKPWCR | inactive |
| EASNCFAIRHFENKFAVETLICPHVVTLQRLYGS | -0.00976 |
| EASNCFAIRHFENKFAVETLICAYWVRLWDARIS | inactive |
| EASNCFAIRHFENKFAVETLICGDAHVPCAVWNT | -0.163 |
| EASNCFAIRHFENKFAVETLICRSFSIIFEKAWD | inactive |
| EASNCFAIRHFENKFAVETLICMD | inactive |
| EASNCFAIRHFENKFAVETLICCYDTLRRHSRDR | 4.56 |
| EASNCFAIRHFENKFAVETLICLCIPYGARSSIL | 7.78 |
| EASNCFAIRHFENKFAVETLICGRVFVRSGDMDQ | inactive |
| EASNCFAIRHFENKFAVETLICVVWIR | inactive |
| EASNCFAIRHFENKFAVETLICTDKGYRGSALRS | 0.565 |
| EASNCFAIRHFENKFAVETLICVSMRLTTYPRAY | 2.43 |
| EASNCFAIRHFENKFAVETLICMHVFNVFDFCTP | inactive |
| EASNCFAIRHFENKFAVETLICKVKQN | inactive |
| EASNCFAIRHFENKFAVETLICMYGVGALTDMAS | -0.505 |
| EASNCFAIRHFENKFAVETLICLNCGCRGRLMIT | inactive |
| EASNCFAIRHFENKFAVETLICIRTWWYYMRGDR | -0.12 |
| EASNCFAIRHFENKFAVETLICLYRQRLEVVWQV | inactive |
| EASNCFAIRHFENKFAVETLICVVRRGRQQNTAC | inactive |
| EASNCFAIRHFENKFAVETLICRATLIMLYGVDW | inactive |
| EASNCFAIRHFENKFAVETLICLVQ | 1.55 |
| EASNCFAIRHFENKFAVETLICHDGCTANVSSPR | inactive |

| Sequence | amyloid nucleation score |
| --- | --- |
| EASNCFAIRHFENKFAVETLICASGQGVSSSAVR | inactive |
| EASNCFAIRHFENKFAVETLICLWVSP | inactive |
| EASNCFAIRHFENKFAVETLICTTTCGQLWVTFG | inactive |
| EASNCFAIRHFENKFAVETLICDDNVVCGGLKWL | 2.81 |
| EASNCFAIRHFENKFAVETLICDDLGSFRDSRFA | inactive |
| EASNCFAIRHFENKFAVETLICLYCGNPFVWRDG | 8.62 |
| EASNCFAIRHFENKFAVETLICLGWWGSATVWEK | inactive |
| EASNCFAIRHFENKFAVETLICARRGTLMSRNSP | inactive |
| EASNCFAIRHFENKFAVETLICREHMLTMLGYVL | inactive |
| EASNCFAIRHFENKFAVETLICYHSVCWTCMRLG | 4.27 |
| EASNCFAIRHFENKFAVETLICGCKVSNLHRDVK | 7.23 |
| EASNCFAIRHFENKFAVETLICYSQWSYNVVRHL | inactive |
| EASNCFAIRHFENKFAVETLICMCPSAQMCRPCD | 7.69 |
| EASNCFAIRHFENKFAVETLICGGVPLALASWIR | inactive |
| EASNCFAIRHFENKFAVETLICFCNRMMLRRRWG | inactive |
| EASNCFAIRHFENKFAVETLICARVGVRVTAWGP | inactive |
| EASNCFAIRHFENKFAVETLICAAGATATRPARW | inactive |
| EASNCFAIRHFENKFAVETLICYS | inactive |
| EASNCFAIRHFENKFAVETLICFQVNAYNATIYG | 8.21 |
| EASNCFAIRHFENKFAVETLICTKLMLSTYRDFG | inactive |
| EASNCFAIRHFENKFAVETLICLHLVVVGSQMRG | inactive |
| EASNCFAIRHFENKFAVETLICRTVHRKVSIGP | inactive |
| EASNCFAIRHFENKFAVETLICCCGEGRETKLSL | 6.28 |
| EASNCFAIRHFENKFAVETLICTSGAKRDPVARR | inactive |

same assay, conditions: random library (experiment): 2

| Sequence | amyloid nucleation score |
| --- | --- |
| EASNCFAIRHFENKFAVETLICNKNYALSMKCVR | inactive |
| EASNCFAIRHFENKFAVETLICDRAGEYQCGSWV | inactive |
| EASNCFAIRHFENKFAVETLICLQSDTVLCMSIG | -0.113 |
| EASNCFAIRHFENKFAVETLICYSFTPVPRVSWD | 4.4 |
| EASNCFAIRHFENKFAVETLICLNRDSRNHANSG | inactive |
| EASNCFAIRHFENKFAVETLICLYWTLGRKLVWL | -0.104 |
| EASNCFAIRHFENKFAVETLICVMGGQVRFVVPC | 8 |
| EASNCFAIRHFENKFAVETLICLRILFA | inactive |
| EASNCFAIRHFENKFAVETLICMLCYSVFRGV | inactive |
| EASNCFAIRHFENKFAVETLICCFVVSL | 8.03 |
| EASNCFAIRHFENKFAVETLICMFVSKWASKYEL | -0.077 |
| EASNCFAIRHFENKFAVETLICVLNMRYMWAFSW | inactive |
| EASNCFAIRHFENKFAVETLICLTFCFNVVNLVG | inactive |
| EASNCFAIRHFENKFAVETLICAVLVILLDSSNE | inactive |
| EASNCFAIRHFENKFAVETLICTLEWFAEASGCG | inactive |
| EASNCFAIRHFENKFAVETLICGLANIIWCGVRF | inactive |
| EASNCFAIRHFENKFAVETLICCTVDNR | 6.84 |
| EASNCFAIRHFENKFAVETLICVNLLNGHIVWLK | 0.629 |
| EASNCFAIRHFENKFAVETLICPLANTR | inactive |
| EASNCFAIRHFENKFAVETLICKYRPKC | inactive |

| Sequence | amyloid nucleation score |
| --- | --- |
| EASNCFAIRHFENKFAVETLICIDIPNQPGMPGL | inactive |
| EASNCFAIRHFENKFAVETLICASICFGFRGFHT | 1.74 |
| EASNCFAIRHFENKFAVETLICGRLAVRSVPIGV | 2.82 |
| EASNCFAIRHFENKFAVETLICVVQFDMSVPFGQ | inactive |
| EASNCFAIRHFENKFAVETLICCAQKQCGQWLWL | 0.644 |
| EASNCFAIRHFENKFAVETLICRIGSYLWSMGTW | inactive |
| EASNCFAIRHFENKFAVETLICLSCYWQRSLFIT | 1.54 |
| EASNCFAIRHFENKFAVETLICGLYD | 4.36 |
| EASNCFAIRHFENKFAVETLICIRALGQVGRGRW | 1.3 |
| EASNCFAIRHFENKFAVETLICMVWAQANMWEGP | 5.41 |
| EASNCFAIRHFENKFAVETLICWLSLRIMSNWWL | inactive |
| EASNCFAIRHFENKFAVETLICYYGSECRSCFHS | 6.67 |
| EASNCFAIRHFENKFAVETLICHARFFGREIVYY | inactive |
| EASNCFAIRHFENKFAVETLICLLYIGWTSLVRK | 1.93 |
| EASNCFAIRHFENKFAVETLICEH | inactive |
| EASNCFAIRHFENKFAVETLICDNINRSYAVWVM | inactive |
| EASNCFAIRHFENKFAVETLICWNSDWRTLLARR | inactive |
| EASNCFAIRHFENKFAVETLICTSDNTMFCVEVE | inactive |
| EASNCFAIRHFENKFAVETLICIHFKCSISFLCG | inactive |
| EASNCFAIRHFENKFAVETLICMMYGCIMVEGTW | inactive |

same assay, conditions: random library (experiment): 3

| Sequence | amyloid nucleation score |
| --- | --- |
| EASNCFAIRHFENKFAVETLICGWWWRSVVDVRD | inactive |
| EASNCFAIRHFENKFAVETLICMYRNNTYTVPEA | 4.36 |
| EASNCFAIRHFENKFAVETLICAEAVWGHQRRRW | 2.91 |
| EASNCFAIRHFENKFAVETLICLWVFVGTAFMLG | inactive |
| EASNCFAIRHFENKFAVETLICRDSYKWLGIW | 1.96 |
| EASNCFAIRHFENKFAVETLICNSMSADVGEPTV | -0.767 |
| EASNCFAIRHFENKFAVETLICCLYFGRLEVVGV | 7.25 |
| EASNCFAIRHFENKFAVETLICDWKGFFRYYGLE | inactive |
| EASNCFAIRHFENKFAVETLICEIHRMSIKAL | 1.62 |
| EASNCFAIRHFENKFAVETLICMKWEPNAKVGW | 1.12 |
| EASNCFAIRHFENKFAVETLICRYVNGVLVVVTC | inactive |
| EASNCFAIRHFENKFAVETLICWNVFSVLPRAGG | inactive |
| EASNCFAIRHFENKFAVETLICLVQGTNYTRWAR | 4.38 |
| EASNCFAIRHFENKFAVETLICDSECSLALFHWG | 6.53 |
| EASNCFAIRHFENKFAVETLICMISITLTWAHLV | inactive |
| EASNCFAIRHFENKFAVETLICVE | inactive |

| Sequence | amyloid nucleation score |
| --- | --- |
| EASNCFAIRHFENKFAVETLICRMALRRRAGQGG | inactive |
| EASNCFAIRHFENKFAVETLICITEMLALPYKLG | 0.0846 |
| EASNCFAIRHFENKFAVETLICMSSFSMRPWVCV | inactive |
| EASNCFAIRHFENKFAVETLICAGPLSAPGWTLS | inactive |
| EASNCFAIRHFENKFAVETLICVVSKTYSDTRYS | 3.99 |
| EASNCFAIRHFENKFAVETLICDELVDRYLSGYS | inactive |
| EASNCFAIRHFENKFAVETLICLPRSS | 2.95 |
| EASNCFAIRHFENKFAVETLICCIRMVVTSRLVV | inactive |
| EASNCFAIRHFENKFAVETLICMKWIVAF | inactive |
| EASNCFAIRHFENKFAVETLICYHAQLMLHVGQR | inactive |
| EASNCFAIRHFENKFAVETLICAGARLEGESTWR | 1.1 |
| EASNCFAIRHFENKFAVETLICMLS | 5.69 |
| EASNCFAIRHFENKFAVETLICLWCNYTVCRLVG | 0.232 |
| EASNCFAIRHFENKFAVETLICARMAQLHWLRR | inactive |
| EASNCFAIRHFENKFAVETLICHLCARGMNAYGG | 3.25 |
